# From the supplement of paper PMC10369915
# Some of the results follow. No stated cut-off is given here; in the data, active = 3.2 or more and inactive = the rest. Only a few entries rise above the background.
# Key:
# Test in all cases: enrichment score (SH2-bound / input frequency) (ratio); bacterial display of known human phosphotyrosine sites (pTyr-Var adds point mutants) read by sequencing; higher = stronger binding; tyrosines were phosphorylated by kinases first
# Details in all cases: peptide library: pTyr-Var
# [1] = molecular target: SHP2 C-SH2 domain E139D
# [2] = molecular target: SHP2 C-SH2 domain wild-type
# [3] = molecular target: SHP2 N-SH2 domain L43F
# [4] = molecular target: SHP2 N-SH2 domain T42A
# [5] = molecular target: SHP2 N-SH2 domain T52S
# [6] = molecular target: SHP2 N-SH2 domain wild-type
# 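Further: displayed peptides selected on beads carrying the immobilized SH2 domain, with library peptides lacking any tyrosine serving as negative controls.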
Binder,enrichment score [1],enrichment score [2],enrichment score [3],enrichment score [4],enrichment score [5],enrichment score [6]
EVASVYESYQP [MAVS_Y92_Q93E],inactive: 0.84,inactive: 0.911,inactive: 0.834,inactive: 0.879,inactive: 0.707,inactive: 0.915
EEGNPYYSSAR [MCCC2_Y520],inactive: 0.445,inactive: 0.453,inactive: 0.471,inactive: 0.428,inactive: 0.491,inactive: 0.559
SVQIVYKPVDL [MAPT_Y627],inactive: 1.06,inactive: 0.868,inactive: 1.2,active: 5.52,inactive: 1.21,inactive: 1.21
TEFIQYVRRKN [MAX_Y73_M74V_YF],inactive: 0.129,inactive: 0.175,inactive: 0.223,inactive: 0.234,inactive: 0.184,inactive: 0.149
RLGVTYEQALA [MAP2_Y996_G991R],inactive: 0.678,inactive: 0.692,inactive: 0.803,inactive: 1.69,inactive: 0.632,inactive: 1.14
ALEQKYWALGQ [MAP1A_Y1555],inactive: 0.887,inactive: 0.679,inactive: 0.777,inactive: 0.616,inactive: 0.819,inactive: 0.773
TRYDEYLEVTK [MAP1A_Y2217_H2214Y],inactive: 0.87,inactive: 0.817,inactive: 1,inactive: 1,inactive: 0.923,inactive: 1.08
TESALYGCTIL [MAP3K21_Y724_V728I],inactive: 0.743,inactive: 0.961,inactive: 0.818,inactive: 0.769,inactive: 0.743,inactive: 1.09
NVTRKYTRQIL [MAP3K2_Y463],inactive: 0.526,inactive: 0.461,inactive: 0.448,inactive: 0.504,inactive: 0.557,inactive: 0.616
PSDSGYSFETI [MAP1B_Y1921_YF],inactive: 0.74,inactive: 0.689,inactive: 0.996,inactive: 0.734,inactive: 0.745,inactive: 0.848
KDQGGYAMHQD [MAPT_Y29_T30A],inactive: 0.668,inactive: 0.477,inactive: 0.662,inactive: 0.425,inactive: 0.726,inactive: 0.615
EVASVYQSFQP [MAVS_Y92_YF],inactive: 0.858,inactive: 0.768,inactive: 0.968,inactive: 0.737,inactive: 0.847,inactive: 1.01
NVQIVYKPVDL [MAPT_Y627_S622N],inactive: 1.12,inactive: 0.946,inactive: 1.13,active: 4.69,inactive: 1.36,inactive: 1.15
QRTMKYTTATG [MCCC1_Y41],inactive: 0.903,inactive: 1.01,inactive: 0.946,inactive: 0.749,inactive: 1.24,inactive: 0.937
NVTRKYSRQIL [MAP3K2_Y463_T464S],inactive: 0.472,inactive: 0.464,inactive: 0.487,inactive: 0.446,inactive: 0.559,inactive: 0.598
QAINEYEKWLE [MAP9_Y603],inactive: 0.892,inactive: 0.812,inactive: 0.776,inactive: 0.866,inactive: 0.826,inactive: 0.677
WGTPEYDSVVA [MAP1A_Y1883_A1881P],inactive: 0.976,inactive: 0.854,inactive: 1.07,inactive: 0.698,inactive: 0.723,inactive: 0.727
DKATEYSQFMR [MAX_Y70_I71S_YF],inactive: 0.755,inactive: 0.661,inactive: 0.694,inactive: 0.619,inactive: 0.608,inactive: 0.816
SLGKGYYDGGC [MC4R_Y35_S36Y],inactive: 0.871,inactive: 0.952,inactive: 0.751,inactive: 0.925,inactive: 0.776,inactive: 0.965

Binder,enrichment score [1],enrichment score [2],enrichment score [3],enrichment score [4],enrichment score [5],enrichment score [6]
YRIGPYQPSVP [MATR3_Y784_N787S],inactive: 0.739,inactive: 0.756,inactive: 0.893,inactive: 0.621,inactive: 0.75,inactive: 0.927
CDIARYIVSQL [MAST2_Y461_P459A],inactive: 0.883,inactive: 1.16,inactive: 0.886,inactive: 0.969,inactive: 1.11,inactive: 1.52
GSPPPYRRRKR [MBD1_Y403],inactive: 0.311,inactive: 0.298,inactive: 0.295,inactive: 0.275,inactive: 0.254,inactive: 0.264
FGCTFYNQAIM [MCCC2_Y196_R193C],inactive: 1.03,inactive: 1.5,inactive: 0.988,inactive: 1.16,inactive: 0.89,inactive: 1.44
DKATEYIQFMR [MAX_Y70_YF],inactive: 0.914,inactive: 0.771,inactive: 0.948,inactive: 0.878,inactive: 0.807,inactive: 0.779
TEFIQYMRRKN [MAX_Y73_YF],inactive: 0.215,inactive: 0.197,inactive: 0.186,inactive: 0.262,inactive: 0.328,inactive: 0.297
FRIGPYQPNVP [MATR3_Y784_YF],inactive: 1.39,inactive: 1.44,inactive: 1.47,inactive: 1.14,inactive: 1.54,inactive: 1.27
SLGKGYSVGGC [MC4R_Y35_D37V],inactive: 0.633,inactive: 0.736,inactive: 0.612,inactive: 0.693,inactive: 0.537,inactive: 0.828
QLQTNYPSSDN [MAX_Y115],inactive: 0.672,inactive: 0.644,inactive: 0.659,inactive: 0.537,inactive: 0.78,inactive: 0.817
PRDSGYSYETI [MAP1B_Y1921_S1917R],inactive: 0.474,inactive: 0.619,inactive: 0.671,inactive: 0.72,inactive: 0.449,inactive: 1.17
WFKKFYDANYD [MAPRE2_Y158],inactive: 0.62,inactive: 0.589,inactive: 0.447,inactive: 0.493,inactive: 0.612,inactive: 0.703
EEGNPYYSSTR [MCCC2_Y520_A524T],inactive: 0.496,inactive: 0.732,inactive: 0.533,inactive: 0.539,inactive: 0.554,inactive: 0.625
AEMTGYVVTRW [MAPK13_Y182],inactive: 0.456,inactive: 0.606,inactive: 0.315,inactive: 0.578,inactive: 0.435,inactive: 0.671
FFDANCDGKEF [MAPRE2_Y162_Y162C_YF],inactive: 0.766,inactive: 0.861,inactive: 0.766,inactive: 0.694,inactive: 0.716,inactive: 0.93
DKATEYSQYMR [MAX_Y70_I71S],inactive: 0.623,inactive: 0.834,inactive: 0.447,inactive: 0.62,inactive: 0.687,inactive: 0.676
SVGGCYEQLFV [MC4R_Y41_D37V],inactive: 0.994,inactive: 1.12,inactive: 0.875,inactive: 0.947,inactive: 0.801,inactive: 1.47
EEGNPYFSSTR [MCCC2_Y520_A524T_YF],inactive: 0.485,inactive: 0.519,inactive: 0.606,inactive: 0.546,inactive: 0.38,inactive: 0.608
EEGNPYFSGAR [MCCC2_Y520_S523G_YF],inactive: 0.601,inactive: 0.556,inactive: 0.503,inactive: 0.517,inactive: 0.533,inactive: 0.687
